The source of these data is ChEMBL document CHEMBL4888484, “Replenishing the malaria drug discovery pipeline: Screening and hit evaluation of the MMV Hit Generation Library 1 (HGL1) against asexual blood stage Plasmodium falciparum ,using a nano luciferase reporter read-out” (2022).

Each structure is given as a SMILES string. Out of some 150,000 compounds screened, about 540 (0.36%) showed an effect of 50% or more. The list shows a part of the results.

The test system of the assay is Plasmodium falciparum. Put plainly: Primary screen in NF54 nanoGlo assay, in single point, at 2uM, 72h; a lower Z score goes with more inhibition. Type of assay: functional, Erythrocyte. Conditions: timepoint 72 hour.
As for `O=C(CN1CCOCC1)N1CCC[C@@H]1COc1ccccc1`, the % Inhibition (in general, the drop in the measured response relative to a control, in per cent) was -13% and the Z score worked out at 1.18.

For the molecule `CCCn1c(C(=O)NCCc2ccccn2)cc2cc(NC(=O)c3ccc(C)cc3)ccc21`, the “% Inhibition” value is on record as -11% and the Z score is 1.35.

With `C=CCn1cc(CN(C)CCCN2CCCCCC2)c(C)n1`, the “% Inhibition” value is reported as -13% and the Z score is reported as 1.94.

As for `Cc1ccccc1-c1nc(OC(C)C)nn1-c1ccc(NC(=O)c2ccc3c(c2)OCO3)cc1`, the “% Inhibition” value stood at 3% and the Z score is recorded as -0.34.

For `COc1ccccc1CC(=O)NC[C@H]1CCS(=O)(=O)C1`, the “% Inhibition” value is recorded as 4% and the Z score is recorded as -0.73.

Take `Cc1ccc(C(=O)Cn2nc3cnccn3c2=O)c(C)c1`: the “% Inhibition” value is 12% and the Z score was -1.33.

As for `CN(C)C[C@@H]1COCCN(Cc2cc(C(C)(C)C)[nH]n2)C1`, the “% Inhibition” value is -16% and the Z score amounted to 1.72.

Turning to `CN1C(=O)C[C@H](NS(=O)(=O)CCc2ccc3c(c2)CCO3)C1=O`, the “% Inhibition” value was -1% and the Z score is 0.11.

Turning to `COC(=O)c1cc(F)ccc1COc1nc(C)no1`, the “% Inhibition” value is given as -2% and the Z score was determined as 0.32.

In the case of `Cc1nn(C(C)C)cc1C(=O)N(C)Cc1ccc[nH]1`, the “% Inhibition” value came out at 4% and the Z score is reported as -0.76.

`O=C1NC[C@H](O)Cn2nc(C(=O)N3CCC(CCCc4ccccc4)CC3)cc21`: the “% Inhibition” value was -8% and the Z score was 1.09.

Take `CCc1nc(N2CCN(S(=O)(=O)c3ccc(Cl)cc3)CC2)c2cnn(-c3ccccc3)c2n1`: the “% Inhibition” value is given as 5% and the Z score is -1.03.

`C[C@]1(CCCO)CCCN1C(=O)Nc1cccnc1`: the “% Inhibition” value is on record as -7% and the Z score stood at 0.86.

As to `CC(=O)c1cc(-c2ncnn2C2Cc3ccccc3C2)c(=O)[nH]c1C`, the “% Inhibition” value is reported as -11% and the Z score came out at 1.53.

Regarding `c1ccc2oc(-c3noc(C45CCCN4CCC5)n3)cc2c1`, the “% Inhibition” value is -5% and the Z score turned out to be 0.56.

As to `CCCCS(=O)(=O)NC1=NCN(CCO)CN1`, the “% Inhibition” value is -3% and the Z score came out at 0.36.

In the case of `Cn1c(C2CC2)nc2cc(CNC(=O)CC3CC3)ccc21`, the “% Inhibition” value is on record as -7% and the Z score stood at 1.3.

Regarding `O=C1C[C@@H](c2ccccc2)N(Cc2ccncc2)CCCNCCN1`, the “% Inhibition” value is listed as -9% and the Z score came out at 1.07.

Turning to `O=C(Nc1cccnc1)c1c[nH]c(-c2ccccc2)n1`, the “% Inhibition” value is recorded as -9% and the Z score amounted to 1.69.

Consider `O=C1C[C@H](C(=O)N2CCCn3nnnc32)CN1c1c(F)cccc1F`, for which the “% Inhibition” value is -1% and the Z score is 0.23.

As for `N#Cc1cccc(S(=O)(=O)N2C(C(N)=O)CC3CCCCC32)c1` (stereo not drawn), the “% Inhibition” value is recorded as 8% and the Z score was -1.2.

For `COC(=O)[C@@H]1CCCCN1CC(=O)N(C(C)C)C(C)C`, the “% Inhibition” value is on record as -1% and the Z score is on record as 0.12.

On to `O=C(NS(=O)(=O)C[C@H]1CCOC1)c1n[nH]c2c1CCCC2`, for which the “% Inhibition” value was -15% and the Z score was determined as 1.54.

For the molecule `COc1ccc(CCNC(=O)Cn2c(-c3ccccc3)nc(C)cc2=O)cc1OC`, the “% Inhibition” value is given as 3% and the Z score is recorded as -0.43.

As to `Cc1n[nH]cc1CN(C)CC1=CC[C@H]2C[C@@H]1C2(C)C`, the “% Inhibition” value is reported as -5% and the Z score was determined as 0.79.

With `Cc1cc2[nH]c3c(c2cc1C)C[C@@H](NC(=O)Cc1ccccc1C)CC3`, the “% Inhibition” value was -10% and the Z score stood at 1.08.

Consider `Cc1ncsc1CNC(=O)N[C@@H](C(C)C)C1(CO)CCC1`, for which the “% Inhibition” value was -8% and the Z score is reported as 0.95.

As to `O=C(c1cn(CC2(O)CCN(Cc3ccccc3)CC2)nn1)N1CCc2ccccc21`, the “% Inhibition” value came to 33% and the Z score is -3.71.

As for `N#Cc1cccc(C(=O)N2CCOc3ccc(N4CCCC4)cc3C2)c1`, the “% Inhibition” value was 2% and the Z score was -0.48.

Regarding `CC1CCC(N(Cc2ccc(C(=O)N(C)C)[nH]2)C[C@H]2CCCO2)CC1` (stereo partly drawn), the “% Inhibition” value is recorded as -14% and the Z score was 1.46.

Regarding `CCCCCNC(=O)N[C@@](C)(CC)c1nccs1`, the “% Inhibition” value was -9% and the Z score was 1.54.

As for `Cc1ccc(-c2nc(N3CCN(CCO)CC3)ncc2-c2cccc(F)c2)cc1`, the “% Inhibition” value is -11% and the Z score is 2.09.

Take `CC1CN(c2ccc3nnc(C(F)(F)F)n3n2)CC(C)O1` (stereo not drawn): the “% Inhibition” value is 3% and the Z score is recorded as -0.29.

Turning to `CC(C)c1noc(CN2C[C@H]3COCC[C@@]3(O)[C@@H]3COCC[C@@H]32)n1`, the “% Inhibition” value is listed as -20% and the Z score is 2.03.

`NC(=O)c1cc([C@@H]2CCCCN2C(=O)Cn2cnc3ccccc32)n[nH]1`: the “% Inhibition” value worked out at 9% and the Z score was -1.12.

With `O=C(Nc1cccnc1)N[C@H](c1ccccc1)C1(CO)CCOCC1`, the “% Inhibition” value stood at 2% and the Z score was -0.33.

On to `CCOc1ccc(CNC(=O)[C@H](C)n2nc(C)c3nn(-c4ccccc4)c(C)c3c2=O)cc1OC`, for which the “% Inhibition” value is listed as 6% and the Z score is on record as -0.83.

With `COc1ccc(C(=O)N2CC[C@H]3[C@H](C2)OCc2cnnn23)cn1`, the “% Inhibition” value was determined as 0% and the Z score turned out to be 0.03.

As for `COc1ccc(-c2ccc(=O)n(CN3CCCCC3)n2)cc1OC`, the “% Inhibition” value is listed as -16% and the Z score amounted to 2.01.

On to `CC(C)N1C[C@H]2CN(S(=O)(=O)Cc3ccc(F)cc3)C[C@@]2(C(=O)N2CCCC2)C1`, for which the “% Inhibition” value came to 6% and the Z score is -1.04.

As for `O=C(Nc1ccccc1)N1CC(O)CC1C1CCCCC1` (stereo not drawn), the “% Inhibition” value is -5% and the Z score worked out at 0.75.

Consider `C[C@@H](CO)N(C)c1cc(Oc2ccccc2Br)ncn1`, for which the “% Inhibition” value is reported as 2% and the Z score is -0.25.

`C[C@H](NS(=O)(=O)CC1CCOCC1)c1csc(C2CC2)n1`: the “% Inhibition” value is recorded as -4% and the Z score was found to be 0.82.

As to `Cc1nc(NCC2(C)CCOCC2)n(C)n1`, the “% Inhibition” value is on record as -9% and the Z score is given as 1.09.

Regarding `CCOC1CC(C(=O)NCc2coc3ccccc23)C1` (stereo not drawn), the “% Inhibition” value was -9% and the Z score is given as 1.65.

As for `CC(=O)N1CCOC[C@H]1c1nc(-c2ccc(OC(F)(F)F)cc2)c[nH]1`, the “% Inhibition” value stood at 32% and the Z score is reported as -3.66.

As for `Cc1ccc(C(=O)N2[C@H](C(=O)NCc3ccccc3)COC23CCN(C(=O)c2ccc(F)cc2)CC3)cc1`, the “% Inhibition” value is recorded as -16% and the Z score amounted to 1.86.

For `c1cc(C[C@@H]2CC[C@H](CN3CCCOCC3)O2)ccn1`, the “% Inhibition” value is given as -8% and the Z score worked out at 1.6.

In the case of `O=C(O)Cc1csc(-c2ccc(Cl)s2)n1`, the “% Inhibition” value is listed as -9% and the Z score is 1.22.

In the case of `Cc1ccc(S(=O)(=O)N2CCc3ncncc3C2)s1`, the “% Inhibition” value is 0% and the Z score is -0.06.

For `Cc1nc(N(C)Cc2ccon2)cc([C@H]2C[C@@H](O)C2)n1`, the “% Inhibition” value is -8% and the Z score is recorded as 1.45.

Regarding `O=C(C[C@@H]1NC(=O)N(CCc2ccccc2)C1=O)N1CCc2ccccc2C1`, the “% Inhibition” value was -9% and the Z score was determined as 1.37.

In the case of `Cc1nnc(CNC(=O)N(C)CC(F)(F)F)o1`, the “% Inhibition” value is -8% and the Z score was 1.45.

For the molecule `O=C(NS(=O)(=O)c1ccc2c(c1)OCCCO2)C1CCC1`, the “% Inhibition” value is -34% and the Z score came to 3.94.
